Measurements published in paper PMC4336329 (PLoS ONE, 2015).
In all, about 310,000 compounds went through this assay and about 2,200 (0.71%) showed an effect of 50% or more. Effects have a minus sign here. This is one part of the list.

What follows are molecules tested against human ether-à-go-go-related gene (hERG) potassium channel (human, UniProt Q12809) (assay: primary screen, population patch clamp on CHO cells stably expressing hERG).
human ether-à-go-go-related gene (hERG) potassium channel, sequence (Q12809 whole entry, looked up): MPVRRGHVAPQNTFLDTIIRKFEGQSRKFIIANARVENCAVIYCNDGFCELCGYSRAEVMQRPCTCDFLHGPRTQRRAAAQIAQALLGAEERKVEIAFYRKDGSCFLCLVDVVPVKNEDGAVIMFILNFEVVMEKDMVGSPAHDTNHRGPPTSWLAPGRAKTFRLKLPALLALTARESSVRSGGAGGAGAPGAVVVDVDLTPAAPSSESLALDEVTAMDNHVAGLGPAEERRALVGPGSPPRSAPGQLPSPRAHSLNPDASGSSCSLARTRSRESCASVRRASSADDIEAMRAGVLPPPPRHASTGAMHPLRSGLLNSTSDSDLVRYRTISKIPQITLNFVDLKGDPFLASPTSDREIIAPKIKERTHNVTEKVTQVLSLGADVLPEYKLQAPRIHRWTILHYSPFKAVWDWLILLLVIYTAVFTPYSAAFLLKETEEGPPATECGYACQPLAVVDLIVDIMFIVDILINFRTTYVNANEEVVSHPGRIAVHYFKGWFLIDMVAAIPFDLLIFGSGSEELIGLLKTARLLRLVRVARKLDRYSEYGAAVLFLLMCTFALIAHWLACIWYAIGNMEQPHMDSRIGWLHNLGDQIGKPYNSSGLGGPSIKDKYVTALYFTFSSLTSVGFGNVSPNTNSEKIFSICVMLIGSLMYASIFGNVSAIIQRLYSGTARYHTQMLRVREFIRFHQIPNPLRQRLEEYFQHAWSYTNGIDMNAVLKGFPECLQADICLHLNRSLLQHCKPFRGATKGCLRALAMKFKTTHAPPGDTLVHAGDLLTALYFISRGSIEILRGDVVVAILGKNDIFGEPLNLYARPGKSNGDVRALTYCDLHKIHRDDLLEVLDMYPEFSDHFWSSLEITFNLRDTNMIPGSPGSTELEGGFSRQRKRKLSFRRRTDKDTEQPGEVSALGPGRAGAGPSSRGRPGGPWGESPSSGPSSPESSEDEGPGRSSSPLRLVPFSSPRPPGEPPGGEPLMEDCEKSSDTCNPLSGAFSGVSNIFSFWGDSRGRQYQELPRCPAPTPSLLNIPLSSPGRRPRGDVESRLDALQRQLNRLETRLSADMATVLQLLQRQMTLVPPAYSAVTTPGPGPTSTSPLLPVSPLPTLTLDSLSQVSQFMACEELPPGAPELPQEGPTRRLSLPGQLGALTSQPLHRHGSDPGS

Row | Compound | hERG current change (%, negative = inhibition) at 1uM
1 | COc1ccc2oc(=O)c(C(=O)NCc3ccc(C)cc3)cc2c1 | 13.1%
2 | COc1ccc(NC(=O)CCNS(=O)(=O)c2ccc3c(c2)CC(C)N3C(=O)C2CC2)cc1 (centres unmarked) | -2.22%
3 | COc1ccc2cc(CO)n(C)c2c1 | 9.79%
4 | O=C(O)CCc1ccc(-c2cccs2)n1NC(=O)c1ccc(Cl)cc1Cl | -1.06%
5 | CCNc1ccc(C(=O)OCC(=O)c2cc(C)n(Cc3ccc4c(c3)OCO4)c2C)cc1[N+](=O)[O-] | 5.58%
6 | O=C(CN(CC1CCCO1)C(=O)CNS(=O)(=O)c1ccc(F)cc1)NCC1CCCO1 (centres unmarked) | 7.37%
7 | COc1ccc(C(=O)NNC(=O)CSc2nnnn2-c2cc(OC)cc(OC)c2)cc1 | 17.6%
8 | Cc1cc(-c2ccc(C)c(S(=O)(=O)Nc3cc(C)on3)c2)on1 | 1.77%
9 | CN1CC[C@]2(CCN3CCc4c(oc5ccccc45)[C@@H]3C2)N(C)C1=O.Cl | -2.24%
10 | Cc1ccc(OC(C)C(=O)Nc2ccc(S(=O)(=O)N3CCOCC3)cc2)cc1 (centres unmarked) | 11.8%
11 | CC(C)(C)n1nnnc1C(c1cccnc1)N1CCN(c2ccccc2)CC1 (centres unmarked) | 8.68%
12 | O=C(CSc1ncccn1)NN=C1CCCCCCC1 | 4.7%
13 | CCn1c(COc2ccc(=O)n(-c3ccccc3)n2)nnc1SCc1ccc(OC)cc1 | -34.1%
14 | Cc1nc2ccccc2c2oc(C(=O)NCCCN3CCC(C)CC3)cc12 | -13.8%
15 | O=C(NCc1ccccc1)C(c1ccc(O)cc1)N(C(=O)Cn1nnc(-c2cccs2)n1)c1ccc2c(c1)OCCO2 (centres unmarked) | 11.8%
16 | Cn1c(=O)[nH]c(=O)c2c1nc(N1CCC(Cc3ccccc3)CC1)n2Cc1ccccc1 | 13%
17 | Cc1ccc(-c2c(C(=O)N/N=C/c3ccncc3)nnn2-c2nonc2N)cc1 | 15.5%
18 | O=C(Cn1ncc2c3ccccc3n(Cc3ccccc3)c2c1=O)NCc1ccccn1 | 20.7%
19 | CCCCCCNC(=O)c1ncn[nH]1 | 18.7%
20 | O=C(Nc1ccc(C(=O)O)c(O)c1)c1ccccc1 | 8.4%
21 | CCC1SC(N)=NC1=O (centres unmarked) | 12.6%
22 | COc1ccc(CC(=O)N(C)CC(=O)Nc2ccc(F)cc2)cc1S(=O)(=O)N1CCOCC1 | 8.65%

Row | Compound | hERG current change (%, negative = inhibition) at 1uM
23 | COC(=O)c1ccc(Cn2c(O)c(N=NC(N)=S)c3ccccc32)o1 | 12.8%
24 | CCOC(=O)N1CCC(NC(=O)CN2C(=O)COc3ccc(C(C)(C)C)cc32)CC1 | -5.59%
25 | CCCCn1c(SCC(=O)Nc2nnc(C)s2)nc2c1c(=O)n(C)c(=O)n2C | 2.33%
26 | C=CCOc1cccc(C2/C(=C(/O)c3ccc(C)cc3)C(=O)C(=O)N2CCN2CCOCC2)c1 (centres unmarked) | 3.69%
27 | COc1ccc(OC)c(N(CC(=O)Nc2cccnc2)S(=O)(=O)c2ccc(OC)c(OC)c2)c1 | 8.38%
28 | COc1nc(-c2cccc([N+](=O)[O-])c2)nc2ccccc12 | 14.1%
29 | O=C(c1ccco1)N1N=C(c2ccc(Br)cc2)CC1c1ccco1 (centres unmarked) | 18.3%
30 | COC(=O)C(O)(c1ccc(NC(=S)NC(=O)c2ccc(Cl)cc2Cl)cc1)C(F)(F)F (centres unmarked) | 12.7%
31 | COc1ccc(-c2cn(-c3ccc(C)cc3)c(=O)n2CC(=O)Nc2cccc(F)c2)cc1 | 11.4%
32 | Cn1c(SCc2ccc([N+](=O)[O-])cc2)nc2c(c1=O)SCC2 | -3.68%
33 | O=C(Nc1ccc(-c2cn3ccccc3n2)cc1)c1ccc(Cl)cc1 | 2.67%
34 | CCOc1ccc(NC(=O)C2C3CC/C=C\CCC32)cc1 (centres unmarked) | 6.75%
35 | COc1ccc(S(=O)(=O)NNC(=O)c2cc3ccccc3o2)cc1 | 13.8%
36 | CC(=O)c1ccccc1OC(=O)c1ccco1 | 6.46%
37 | COC(=O)c1ccc(COc2ccc3c(c2)CCC3)o1 | 5.9%
38 | C=CCNc1nc(NC(C)(C)CO)nc(OC)n1 | -1.93%
39 | Cc1ccc(S(=O)(=O)Cc2ccc(C(=O)N3CCC(C)CC3)cc2)cc1 | -6.49%
40 | Cc1cc(NC(=S)Nc2cccc3ccccc23)n[nH]1 | 8.77%
41 | CN1CCN(NC(=O)/C=C/c2ccc(Br)cc2)CC1 | 6.1%
42 | O=C(NC1CCN(C(=O)N2c3ccccc3Sc3ccccc32)CC1)c1ccco1 | 9.89%
43 | CSc1nsc(NC(=O)CCNC(=O)c2ccc([N+](=O)[O-])cc2)n1 | -1.05%
44 | COc1ccccc1N1CCN(Cc2ccccc2F)CC1 | -0.226%
